Measured values reported in PubChem BioAssay (NCATS).
The inconclusive results got no clear call from the source; some entries with a clear call stand among them for comparison. A call without a number means that no potency is given here. For some of these results: Potencies beside an inconclusive call are fits to weak or partial responses and may not hold up. Calls of active or inactive are those of the source. Unless noted, the call rests on the fitted dose curve; in most records, active means well fitted curve in the direction sought with a large enough effect; inconclusive means small, poorly fitted or top-dose-only effect, or another doubt; inactive means no such curve, though single readings can be large; an effect the other way counts as inactive or inconclusive.

What was measured:
[1] = Primary qHTS for inhibitors of nuclear receptor binding SET domain protein 2 (NSD2) in an isogenic RCH-ACV NSD2 p.E1099K mutant (9B) (AID 1645876); further: nearly all actives have a fitted effect of over 70% in size; further: potency means the concentration at half of the fitted maximal effect
[2] = Primary qHTS for inhibitors of nuclear receptor binding SET domain protein 2 (NSD2) in an RCH-ACV wild type WT cells (2C) (AID 1645877); conditions: activity change, negative = cell killing: at 44.9 µM (top of the series) unless noted; further: nearly all actives have a fitted effect of over 70% in size; further: potency means the concentration at half of the fitted maximal effect
KB-3-1 = test: Cytotoxic Profiling of Annotated Libraries Using Quantitative High-Throughput Screening (AID 1296008); conditions: Five cell lines viability, CellTiter-Glo ATP luminescence, 48-72 h; max response: stronger effect = lower value; further: nearly all actives have a fitted effect of over 60% in size; further: potency means the concentration at half of the fitted maximal effect
Method in brief: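 Cytotoxicity was measured as CellTiter-Glo ATP luminescence, read after 10 min at room temperature. Compound treatment of the cells lasted 48 or 72 hr at 37 degrees Celsius in a qHTS format.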

OV90 = test: Primary qHTS to identify gynecologic anti-cancer compounds using libraries of approved drugs and bioactive compounds (AID 1345084); conditions: Gynecologic cancer cell panel viability, ATPlite luminescence, 48 h; series mostly up to 57.5 µM; further: nearly all actives have a fitted effect of over 55% in size; further: potency means the concentration at half of the fitted maximal effect
Method in brief: (§1)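 Cell viability after 48 h drug treatment, ATPlite luminescence readout; five doses.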

[3] = Primary redox qHTS assay for identification of artifact compounds. (AID 1845223); conditions: Amplex Red/HRP redox cycling with DTT, fluorescence; redox activity (% of DA3003): at 53.8 µM (top of the series)
Method in brief: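 Amplex Red (25 uM) and HRP (250 mU/mL) in HBSS, with compounds for 15 min, then 250 uM DTT for 30 min, room temperature, dark. Fluorescence 525/598 nm read; normalized to DMSO and 10 uM DA3003; Hill fit.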

Hek293T = test: Primary qHTS to identify gynecologic anti-cancer compounds using libraries of approved drugs and bioactive compounds (AID 1345084); conditions: Gynecologic cancer cell panel viability, ATPlite luminescence, 48 h, control line for the selectivity index; activity change, negative = cytotoxicity: at 57.5 µM (top of the series) unless noted; further: nearly all actives have a fitted effect of over 55% in size; further: potency means the concentration at half of the fitted maximal effect
Method in brief: as §1

SKOV3 = test: as above; conditions: Gynecologic cancer cell panel viability, ATPlite luminescence, 48 h; series mostly up to 57.5 µM
Method in brief: as §1

Tov-21-G = test: as above; conditions: Gynecologic cancer cell panel viability, ATPlite luminescence, 48 h; activity change, negative = cytotoxicity: at 57.5 µM (top of the series) unless noted
Method in brief: as §1

[4] = P-glycoprotein substrates identified in KB-8-5-11 adenocarcinoma cell line, qHTS therapeutic library screen (AID 1346987); further: nearly all actives have a fitted effect of over 65% in size
Method in brief: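 Steps: plate 500 KB-8-5-11 cells/well in DMEM + 10% FCS (colchicine removed); pin compounds in dose-response; incubate 72 h, 37 degree C, 5% CO2; add CellTiter-Glo, 5 min; read luminescence.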

[5] = Primary fluorescence-based thiol-reactive (MSTI) qHTS assay for identification of artifact compounds. (AID 1845221);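 further: potency means the concentration at half of the fitted maximal effect; thiol-reactive compounds lower the probe fluorescence signal; nearly all actives have a fitted effect of over 65% in size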
Method in brief: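 Probe: MSTI 4 uM, PBS pH 7.4, 2% DMSO. Incubation 1 h, RT, light-protected. Readout fluorescence 525/598 nm.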

[6] = test system: Zika virus NS2B-NS3 protease (unlinked complex); test: Primary screen GU Rhodamine qHTS for Zika virus inhibitors: Unlinked NS2B-NS3 protease assay (AID 1347159); further: potency means the concentration at half of the fitted maximal effect; nearly all actives have a fitted effect of over 60% in size
Method in brief: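 Noncovalent NS2B hydrophilic domain–NS3 protease domain complex (25 nM) preincubated 15 min at room temperature with compounds (up to 114 microM) in 10 mM Tris-HCl pH 8.0, 0.01% Tween 20; 1.5 microM Rhodamine110 substrate added, fluorescence change over 15 min fitted to Hill equation.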

[7] = test system: Zika virus NS2B-NS3 protease (linked construct); test: Primary screen NINDS Rhodamine qHTS for Zika virus inhibitors (AID 1347160); conditions: activity change, negative = inhibition: at 57.1 µM (top of the series) unless noted
Method in brief: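 Purified linked NS2B-NS3 protease (NS2B hydrophilic domain joined to NS3 protease by flexible linker), 25 nM in 10 mM Tris-HCl pH 8.0, 0.01% Tween 20. Compounds titrated, 15 min preincubation at room temperature; 1.5 microM Rhodamine110 substrate, FITC fluorescence change over 15 min.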

[8] = target: Cytochrome P450 2C9 (Homo sapiens) (UniProt P11712); test: Cytochrome P450 family 2 subfamily C member 9 (CYP2C9) small molecule antagonists: luciferase biochemical (cell-free) qHTS assay (AID 1645842; active means well fitted curve in the direction sought with a large enough effect in the repeat runs; inconclusive means weak or mixed curves; inactive means no such curve, though single readings can be large; an effect the other way counts as inactive or inconclusive)
Method in brief: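 Luminescence, after 20 min with luciferin detection reagent, reflected CYP2C9 turnover during a 1 h NADPH-driven reaction at 37C. Enzyme-substrate mix contained 0.4% bovine serum albumin and was preincubated with compound 10 min at room temperature.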

[9] = target: Luciferin 4-monooxygenase (Photinus pyralis) (UniProt P08659); test: Primary firefly luciferase (FLuc) qHTS assay for identification of artifact compounds. (AID 1845220); further: potency means the concentration at half of the fitted maximal effect; nearly all actives have a fitted effect of over 60% in size
Method in brief: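 FLuc 10 nM; luciferin 10 uM; ATP 10 uM; Tris-acetate pH 7.6, Mg-acetate 10 mM; 15 min RT preincubation; 5 min reaction; luminescence.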

PA-1 = test: Primary qHTS to identify gynecologic anti-cancer compounds using libraries of approved drugs and bioactive compounds (AID 1345084); conditions: Gynecologic cancer cell panel viability, ATPlite luminescence, 48 h; series mostly up to 57.5 µM; further: nearly all actives have a fitted effect of over 55% in size; further: potency means the concentration at half of the fitted maximal effect
Method in brief: as §1

[10] = qHTS of pediatric cancer cell lines to identify multiple opportunities for drug repurposing: Primary screen for NB-EBc1 cells (AID 1347095)
Method in brief: (§2)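 Cells plated at 500-1,000/well in growth medium, compounds added after 5 h. MIPE tested at 11 points (from 0.78 nM), NPC at 8 points (from 0.59 nM). CellTiter-Glo luminescence after 48 h; concentration-response curves from primary screen.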

[11] = qHTS of pediatric cancer cell lines to identify multiple opportunities for drug repurposing: Primary screen for Saos-2 cells (AID 1347097); further: nearly all actives have a fitted effect of over 40% in size
Method in brief: as §2

[12] = qHTS of pediatric cancer cell lines to identify multiple opportunities for drug repurposing: Primary screen for NB1643 cells (AID 1347099); further: nearly all actives have a fitted effect of over 50% in size
Method in brief: as §2

[13] = qHTS of pediatric cancer cell lines to identify multiple opportunities for drug repurposing: Primary screen for LAN-5 cells (AID 1347100)
Method in brief: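 Cells (500-1,000/well) rested 5 h, then received compounds for 48 h; metabolically active cells were measured by CellTiter-Glo luminescence. Final concentrations spanned up to 46 µM (MIPE, 11-point) or 0.59 nM-46 µM (NPC, 8-point) in primary screens, 11-point in follow-ups.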

[14] = qHTS of pediatric cancer cell lines to identify multiple opportunities for drug repurposing: Primary screen for MG 63 (6-TG R) cells (AID 1347105); conditions: MG 63 (6-TG R) viability, CellTiter-Glo, 48 h; activity change, negative = cytotoxic: at 46 µM (top of the series); further: nearly all actives have a fitted effect of over 50% in size
Method in brief: as §2

[15] = target: Cytochrome P450 2D6 (Homo sapiens) (UniProt P10635); test: Cytochrome P450 family 2 subfamily D member 6 (CYP2D6) small molecule antagonists: luciferase biochemical (cell-free) qHTS assay (AID 1645840; active means well fitted curve in the direction sought with a large enough effect in the repeat runs; inconclusive means weak or mixed curves; inactive means no such curve, though single readings can be large; an effect the other way counts as inactive or inconclusive)
Method in brief: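 P450-Glo luminescent screen: recombinant CYP2D6 enzyme–proluciferin substrate mix preincubated with compound 10 min at room temperature, then NADPH regeneration added for 1 h at room temperature. Detection reagent added for 20 min; luciferin light read as relative luminescence units.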

Tov112D = test: Primary qHTS to identify gynecologic anti-cancer compounds using libraries of approved drugs and bioactive compounds (AID 1345084); conditions: Gynecologic cancer cell panel viability, ATPlite luminescence, 48 h; series mostly up to 57.5 µM; further: nearly all actives have a fitted effect of over 55% in size; further: potency means the concentration at half of the fitted maximal effect
Method in brief: as §1

[16] = Drug repurposing screens with cells derived from glioblastoma tumor samples (AID 1345199); conditions: GBM patient neurospheres viability, ATP luminescence, 48 h; Potency: tumour line A unless noted; activity, negative = cell killing: at 46 µM (top of the series), tumour line A unless noted; further: potency means the concentration at half of the fitted maximal effect; nearly all actives have a fitted effect of over 40% in size
Method in brief: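 Four patient lines of CD133+ GBM neurospheres were screened at several concentrations; hits were retested in those lines plus three slower-growing GBM lines, using 48-hour treatment and ATP-based viability.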
Tags describe the fitted curve by direction and shape.

Sequence of UniProt P10635 (P10635 whole entry, looked up): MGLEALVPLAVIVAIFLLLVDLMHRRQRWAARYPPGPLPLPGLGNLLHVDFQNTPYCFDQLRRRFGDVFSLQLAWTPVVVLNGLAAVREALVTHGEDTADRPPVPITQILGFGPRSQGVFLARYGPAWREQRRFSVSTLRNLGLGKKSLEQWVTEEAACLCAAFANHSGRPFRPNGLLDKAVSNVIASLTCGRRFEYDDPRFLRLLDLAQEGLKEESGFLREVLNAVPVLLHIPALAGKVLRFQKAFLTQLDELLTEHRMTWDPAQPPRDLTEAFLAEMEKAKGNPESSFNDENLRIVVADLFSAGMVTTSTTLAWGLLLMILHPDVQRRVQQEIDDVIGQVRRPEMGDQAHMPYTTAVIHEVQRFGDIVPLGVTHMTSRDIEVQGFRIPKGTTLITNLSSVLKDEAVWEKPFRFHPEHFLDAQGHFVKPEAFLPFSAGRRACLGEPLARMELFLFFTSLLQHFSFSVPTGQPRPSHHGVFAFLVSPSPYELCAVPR
Sequence of UniProt P11712 (P11712 whole entry, looked up): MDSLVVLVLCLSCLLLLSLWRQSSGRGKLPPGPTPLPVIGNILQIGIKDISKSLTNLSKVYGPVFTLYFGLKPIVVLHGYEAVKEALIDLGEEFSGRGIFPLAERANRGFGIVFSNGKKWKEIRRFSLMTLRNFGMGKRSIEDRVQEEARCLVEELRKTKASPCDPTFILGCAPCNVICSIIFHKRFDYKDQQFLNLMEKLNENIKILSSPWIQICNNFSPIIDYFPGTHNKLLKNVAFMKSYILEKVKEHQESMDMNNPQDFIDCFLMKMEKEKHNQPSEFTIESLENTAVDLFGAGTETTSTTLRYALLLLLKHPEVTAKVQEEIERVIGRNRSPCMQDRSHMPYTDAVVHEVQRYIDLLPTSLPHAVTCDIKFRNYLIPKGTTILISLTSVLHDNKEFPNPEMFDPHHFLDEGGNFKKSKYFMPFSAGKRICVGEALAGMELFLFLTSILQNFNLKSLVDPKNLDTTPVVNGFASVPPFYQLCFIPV

In the case of CCN(CC)Cc1ccc(C(=O)N(CCc2ccccc2OC)[C@@H]2CCNC2)cc1, the Potency [1] is reported as inconclusive: 8.93 µM [inhibitor, single point], the Potency [2] is reported as inconclusive: 8.93 µM [inhibitor, single point] and the Potency (KB-3-1) is reported as active: 3.99 µM. The Potency (OV90) was inconclusive: 3.98 µM [cytotoxic, partial curve, poor fit].
With CC1(C)CC[C@]2(C(=O)O)CC[C@]3(C)C(=CCC4[C@@]5(C)C[C@@H](O)[C@H](O)[C@@](C)(CO)C5[C@H](O)C[C@]43C)[C@@H]2C1 (stereo not given in full) the Potency [1] was inconclusive: 14.2 µM [inhibitor, single point], the Potency [2] was inconclusive: 14.2 µM [inhibitor, single point] and the Potency [3] was “inactive”. The outcome (KB-3-1) was “inactive”, the Potency (Hek293T) was “inactive” and the Potency (SKOV3) was inconclusive: 2.82 µM [rising, single point].
For COC1=CC(=O)O[C@@H](/C=C/c2ccccc2)[C@@H]1O, the outcome (KB-3-1) was “inactive”, the Potency (SKOV3) was inconclusive: 31.6 µM [rising, single point] and the Potency (Tov-21-G) was “inactive”.
For COc1cc(O)cc(OC2OC(CO)C(O)C(O)C2O)c1 (stereo not given), the Potency [4] was “inactive”, the Potency [2] was “inactive” and the Potency [5] was active: 9.47 µM. The Potency (KB-3-1) was inconclusive: 4.61 µM [inhibitor, single point] and the Potency (OV90) was “inactive”.
For Cc1ccccc1NC(=O)Nc1ccc(CC(=O)N(C)[C@@H](CC(C)C)C(=O)NCC[C@H](NC(=O)[C@@H]2CCCN2S(=O)(=O)c2cc(Cl)cc(Cl)c2)C(=O)O)cc1, the Potency [6] was inconclusive: 3.16 µM [inhibitor, full curve, poor fit], the Potency [7] was inconclusive: 12.6 µM [inhibitor, partial curve] and the Potency [8] was inconclusive: 26.8 µM [inhibitor, single point]. For the same molecule, the Potency [1] was “inactive”, the Potency [9] was inconclusive: 11.7 µM [inhibitor, partial curve, poor fit] and the Potency (KB-3-1) was inconclusive: 14.2 µM [inhibitor, single point]. The Potency (PA-1) was “inactive” and the Potency (SKOV3) was “inactive”.
For CC(=O)OC1C(C)C2C(OC3OC(CO)C(O)C(O)C3O)OC=C(C(=O)O)C2C1OC(=O)c1ccccc1 (stereo not given), the Potency [5] was inconclusive: 13 µM [inhibitor, partial curve, poor fit], the outcome (KB-3-1) was “inactive” and the Potency (PA-1) was “inactive”.
For CC(CCc1ccc2c(c1)OCO2)NN (stereo not given), the Potency [10] was “inactive”, the Potency [11] was “inactive” and the Potency [12] was “inactive”. For the same molecule, the Potency [13] was “inactive”, the Potency [14] was “inactive” and the Potency [15] was inconclusive: 27.5 µM [inhibitor, single point]. The Potency [2] was “inactive”, the max response (KB-3-1) was inactive: -13.1% and the Potency (SKOV3) was inconclusive: 39.8 µM [rising, single point]. The Potency (Tov112D) was “inactive” and the Potency [16] was inconclusive: 31.6 µM [inhibitor, partial curve].
